By IC50 is meant the dose at which the fit gives 50% viability; where the fit passes the top or lowest dose, that dose stands as a limit. AUC, from the same fit, is the share of area under the viability curve across the 256-fold dose range: 1 means no effect, lower means more sensitive. For part of these data: An inferred top dose was calculated from the reported fits. For part of these data: Drugs with an entry number were screened twice under separate entries, and the two screens often disagree.
Columns and labels:
Experiment in all cases: Viability of human cancer cell lines after 72 h of drug (GDSC screen)
JQ1 = compound: Cc1sc2c(c1C)C(c1ccc(Cl)cc1)=N[C@@H](CC(=O)OC(C)(C)C)c1nnc(C)n1-2 [JQ1]
Description: (§1)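 Human cancer cell lines in 384-well plates, medium with 10% serum, drug for 72 h over a 256-fold dose range (nine 2-fold or five 4-fold steps up to the top dose). Adherent lines were fixed and stained with the nucleic acid dye Syto60, suspension lines read with resazurin; signal relative to control wells, capped at 0 and 100%. One two-parameter sigmoid per drug and line, fitted in a mixed model over all curves with the slope shared within a line.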

JNK Inhibitor VIII = compound: CCOc1nc(NC(=O)Cc2cc(OC)ccc2OC)cc(N)c1C#N [JNK Inhibitor VIII]; settings: top dose 10 µM; top dose inferred
Description: as §1

AMG-706 = compound: CC1(C)CNc2cc(NC(=O)c3cccnc3NCc3ccncc3)ccc21 [AMG-706]; settings: top dose 2 µM; top dose inferred
Description: as §1

JNJ-26854165 = compound: c1ccc2c(CCNc3ccc(Nc4ccncc4)cc3)c[nH]c2c1 [JNJ-26854165]; settings: top dose 10 µM
Description: as §1

FTI-277 = compound: COC(=O)[C@H](CCSC)NC(=O)c1ccc(NC[C@@H](N)CS)cc1-c1ccccc1 [FTI-277]; settings: top dose 1.024 µM; top dose inferred
Description: as §1

NSC-207895 = compound: CN1CCN(c2ccc([N+](=O)[O-])c3no[n+]([O-])c23)CC1 [NSC-207895]; settings: top dose 20 µM; top dose inferred
Description: as §1

SB-715992 = compound: Cc1ccc(C(=O)N(CCCN)[C@@H](c2nc3cc(Cl)ccc3c(=O)n2Cc2ccccc2)C(C)C)cc1 [SB-715992]; settings: top dose 0.128 µM; top dose inferred
Description: as §1

Belinostat = compound: O=C(/C=C/c1cccc(S(=O)(=O)Nc2ccccc2)c1)NO [Belinostat]; settings: top dose 20 µM; top dose inferred
Description: as §1

YM155 = compound: COCC[n+]1c2c(n(Cc3cnccn3)c1C)C(=O)c1ccccc1C2=O [YM155]; settings: top dose 5.12 µM
Description: as §1

OSI-906 = compound: C[C@]1(O)C[C@@H](c2nc(-c3ccc4ccc(-c5ccccc5)nc4c3)c3c(N)nccn32)C1 [OSI-906]; settings: top dose 2.56 µM; top dose inferred
Description: as §1

[1] = top dose 1 µM, screen: GDSC drug entry 1218, top dose inferred
[2] = top dose 2.56 µM, screen: GDSC drug entry 163

Row | Cell Line | AUC (JQ1; [1]) | IC50 (JQ1; [1]) [nM] | AUC (JNK Inhibitor VIII) | IC50 (JNK Inhibitor VIII) [nM] | AUC (AMG-706) | IC50 (AMG-706) [nM] | AUC (JNJ-26854165) | IC50 (JNJ-26854165) [nM] | AUC (JQ1; [2]) | IC50 (JQ1; [2]) [nM] | AUC (FTI-277) | IC50 (FTI-277) [nM] | AUC (NSC-207895) | IC50 (NSC-207895) [nM] | AUC (SB-715992) | IC50 (SB-715992) [nM] | AUC (Belinostat) | IC50 (Belinostat) [nM] | AUC (YM155) | IC50 (YM155) [nM] | AUC (OSI-906) | IC50 (OSI-906) [nM]
1 | NCI-H2066 (small cell lung carcinoma, adherent) | 0.956 | > 1000 | 0.975 | > 10000 | 0.939 | > 2000 | 0.95 | > 10000 |  |  |  |  |  |  |  |  |  |  |  |  |  | 
2 | NCI-H2170 (lung squamous cell carcinoma, adherent) | 0.964 | > 1000 |  |  |  |  | 0.929 | > 10000 | 0.892 | > 2560 | 0.983 | > 1020 | 0.984 | > 20000 | 0.952 | > 128 | 0.673 | 3900 | 0.331 | 105 | 0.954 | > 2560
3 | OCI-LY7 (B-cell lymphoma, suspension) |  |  | 0.981 | > 10000 | 0.994 | > 2000 | 0.895 | 6100 |  |  |  |  |  |  |  |  |  |  |  |  |  | 
4 | PCI-38 (head and neck, adherent) | 0.983 | > 1000 |  |  |  |  | 0.819 | 5750 | 0.867 | 2350 | 0.975 | > 1020 | 0.937 | > 20000 | 0.846 | 93.8 | 0.495 | 1210 | 0.081 | < 20 | 0.986 | > 2560
5 | PL18 (pancreas, adherent) | 0.986 | > 1000 |  |  |  |  | 0.868 | 8990 | 0.643 | 397 | 0.966 | > 1020 | 0.987 | > 20000 | 0.98 | > 128 | 0.551 | 1730 | 0.032 | < 20 | 0.957 | > 2560
6 | PWR-1E (prostate, adherent) | 0.986 | > 1000 | 0.984 | > 10000 | 0.971 | > 2000 | 0.916 | > 10000 |  |  |  |  |  |  |  |  |  |  |  |  |  | 
7 | RD (rhabdomyosarcoma, adherent) | 0.975 | > 1000 |  |  |  |  | 0.951 | > 10000 | 0.69 | 577 | 0.985 | > 1020 | 0.635 | 3070 | 0.881 | > 128 | 0.442 | 857 | 0.048 | < 20 | 0.745 | 870
8 | RT-112 (bladder, adherent) | 0.983 | > 1000 |  |  |  |  | 0.821 | 6390 | 0.83 | 1780 | 0.964 | > 1020 | 0.828 | 13600 | 0.697 | 29.9 | 0.402 | 658 | 0.083 | < 20 | 0.905 | > 2560
9 | SCC-4 (head and neck, adherent) | 0.982 | > 1000 |  |  |  |  | 0.885 | > 10000 | 0.632 | 398 | 0.967 | > 1020 | 0.936 | > 20000 | 0.961 | > 128 | 0.501 | 1260 | 0.073 | < 20 | 0.912 | > 2560
10 | SK-GT-2 (stomach, adherent) | 0.984 | > 1000 | 0.974 | > 10000 | 0.964 | > 2000 | 0.86 | 9160 |  |  |  |  |  |  |  |  |  |  |  |  |  | 
11 | SN12C (kidney, adherent) | 0.949 | > 1000 |  |  |  |  | 0.914 | > 10000 | 0.857 | 2510 | 0.954 | > 1020 | 0.983 | > 20000 | 0.949 | > 128 | 0.595 | 2350 | 0.182 | 30.4 | 0.949 | > 2560
12 | SW156 (kidney, adherent) | 0.984 | > 1000 |  |  |  |  | 0.724 | 2930 | 0.89 | > 2560 | 0.986 | > 1020 | 0.982 | > 20000 | 0.959 | > 128 | 0.765 | 8090 | 0.506 | 332 | 0.953 | > 2560
13 | SW837 (large intestine, adherent) | 0.978 | > 1000 |  |  |  |  | 0.958 | > 10000 | 0.853 | > 2560 | 0.974 | > 1020 | 0.887 | > 20000 | 0.815 | 101 | 0.305 | 295 | 0.194 | 27.8 | 0.779 | 1410
14 | SW1463 (large intestine, adherent) | 0.97 | > 1000 |  |  |  |  | 0.94 | > 10000 | 0.819 | > 2560 | 0.971 | > 1020 | 0.977 | > 20000 | 0.893 | > 128 | 0.697 | 6730 | 0.966 | > 5120 | 0.889 | > 2560
15 | T-24 (bladder, adherent) | 0.987 | > 1000 |  |  |  |  | 0.911 | > 10000 | 0.967 | > 2560 | 0.939 | > 1020 | 0.978 | > 20000 | 0.928 | > 128 | 0.612 | 2500 | 0.196 | 42.4 | 0.975 | > 2560
16 | U251 (glioma, adherent) | 0.927 | > 1000 |  |  |  |  | 0.872 | 8800 | 0.793 | 1110 | 0.972 | > 1020 | 0.973 | > 20000 | 0.678 | 24.4 | 0.242 | 235 | 0.023 | < 20 | 0.984 | > 2560
